# Measurements from PubChem BioAssay AID493208 (National Center for Advancing Translational Sciences (NCATS), 2011).
# Out of some 44,000 compounds screened, about 340 (0.77%) were called active. Inconclusive results (about 5%) are left out. Calls come from the whole dose curve; as a rule, active = well fitted inhibition curve with a large enough effect; inconclusive = small, poorly fitted or top-dose-only effect; inactive = flat fitted curve, though single readings scatter. Some of the results follow.
# Assay: Acumen qHTS Assay for Inhibitors of the mTORC1 Signaling Pathway in MEF (Tsc2-/-, p53-/-) Cells: Sytravon; note: nearly all actives have a fitted effect of over 50% in size;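 for activity change, negative = inhibition: plate controls were DMSO for no effect and rapamycin for full effect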
# Settings: phospho-rpS6 immunofluorescence/PI, 24 h; series mostly up to 38.3 µM; activity change, negative = inhibition: at the top concentration
# Method in brief: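 Readout is phospho-S6 Alexa 488 signal normalized to PI per well, reported as % active cells with thresholds set from rapamycin (7.5 nM) and DMSO controls. Cells: Tsc2-/-, p53-/- MEFs, 24 hrs compound at 37 C; PI cell number serves as viability.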
# Potency is the fitted concentration of half-maximal effect.
SMILES,"activity change, negative = inhibition",Potency
Cc1noc2ncnc(NCc3cccc(Cl)c3)c12,inactive: 4.64%,
Cc1c(C(=O)N2CCC(C(=O)Nc3ccc(F)cc3)CC2)sc2nc[nH]c(=O)c12,inactive: -2.44%,
Oc1cccc(Nc2ncnc3sc4c(c23)CCCC4)c1,inactive: 7.97%,
CS(=O)(=O)N1CCc2cc(C(=O)NCc3ccccc3)ccc21,inactive: 2.58%,
CC(C)(C)C(=O)N1CCN(c2nc3c(F)cccc3s2)CC1,inactive: -0.965%,
CCOc1ccc(-n2c(SCC(=O)N3CCCCC3)nc3c([nH]c4ccccc43)c2=O)cc1,inactive: -0.326%,
COc1cc(C(=O)Nc2ccc3nc(SCc4ccc(C)cc4)sc3c2)cc(OC)c1OC,inactive: -3.27%,
CC(=O)c1ccc(S(=O)(=O)Nc2cccc(-c3ccc(N4CCCCCC4)nn3)c2)cc1,inactive: -7.65%,
CCCC(=O)N1CCN(c2nc3c(OC)ccc(C)c3s2)CC1,inactive: -3.09%,
CC(C)(C)OC(=O)N1CCC(c2c(C(=O)N3CCN(C(=O)c4ccco4)CC3)cnn2-c2cccc(F)c2)CC1,inactive: 0%,
CCOc1ccc(-n2c(SCC(=O)N3CCOCC3)nc3c([nH]c4ccccc43)c2=O)cc1,inactive: 4.36%,
Cc1ccc(C)c(Nc2nnc(-n3nc(C)cc3C)c3ccccc23)c1,inactive: -9.92%,
O=C(Nc1cccc(F)c1)c1ccc2snnc2c1,inactive: -5.12%,
CCN(c1ccccc1)S(=O)(=O)c1nnc(NC(=O)c2cccs2)s1,inactive: 2.98%,
Cc1ccc(-n2nc(C(=O)N3CCC(C)CC3)c(=O)n(C)c2=O)cc1,inactive: -4.81%,
Cc1ccc(CNC(=O)C(CC(C)C)NS(=O)(=O)c2ccc3c(c2)oc(=O)n3C)cc1 (stereo not given),inactive: -1.06%,
O=C(NCc1ccc(Cl)cc1)c1cnc(N2CCCCC2)c2ccccc12,inactive: -0.676%,
Cc1cccc(N2CCN(CCNC(=O)C3COc4ccccc4C3)CC2)c1C (stereo not given),inactive: -19.3%,
O=C(O)c1cc(-n2c(/C=C\c3ccc(F)cc3)nc3ccccc3c2=O)ccc1Cl,inactive: 9.54%,
Cc1ccc(S(=O)(=O)NCCS(=O)(=O)N2CCN(c3ccccc3)CC2)cc1,inactive: 0.666%,

SMILES,"activity change, negative = inhibition",Potency
COc1ccc(CNC(=O)C2CCN(Cc3nc(-c4ccc(Cl)cc4)oc3C)CC2)cc1,inactive: -6.71%,
Cc1nc(N2CCOCC2)c2c(C(=O)Nc3cccc(C(F)(F)F)c3)c(C)oc2n1,inactive: 5.72%,
Cc1ccc(Cc2nc3ccccc3nc2SCC(=O)Nc2ccc3c(c2)OCO3)cc1,inactive: 0.0901%,
CSc1ccc(CCNC(=O)CCc2c(C)nc3c(c(C)nn3-c3ccccc3)c2C)cc1,inactive: -20%,
O=C(NC1CC(=O)N(c2cccc(F)c2)C1)c1ccc(Br)o1 (stereo not given),inactive: -0.213%,
CC(=O)c1ccc(NC(=O)CCSc2nc(-c3ccco3)cc(C(F)(F)F)n2)cc1,inactive: -19.7%,
Cc1c(S(=O)(=O)c2cccc(Cl)c2)nnn1-c1cccc(C(F)(F)F)c1,inactive: 0.28%,
COC(=O)c1c(-c2ccc(Cl)cc2)noc1N1CCN(c2ccc(C)cc2C)CC1,inactive: 7.99%,
CC(C)c1ccc(NC(=O)C2CCCN(S(=O)(=O)c3cccc4cccnc34)C2)cc1 (stereo not given),inactive: -1.74%,
CCCCN(C)CCCNC(=O)C1CCN(c2nc3ccc(CC)cc3s2)CC1,,active: 18.5 µM
COc1ccc(OC)c(NC(=O)c2noc3c2CCCC3)c1,inactive: 3.52%,
CCOC(=O)Cc1ccc(NC(=O)N2CCOc3ccc(C)cc32)cc1,inactive: 8.1%,
CCOC(=O)c1cc(S(=O)(=O)N2CCN(c3ccccc3)CC2)[nH]n1,inactive: -4.07%,
CCc1nnc2c3ccccc3nc(Nc3ccc(C(C)=O)cc3)n12,inactive: -1.98%,
Cc1ccc2nc(N(Cc3cccnc3)C(=O)COc3ccccc3)sc2c1,inactive: -5.08%,
CCOC(=O)Cn1c(=O)oc2cc(S(=O)(=O)N3CCN(c4cccc(C)c4C)CC3)ccc21,inactive: -9.63%,
O=C(Nc1c(Cl)cccc1Cl)c1cc(-c2ccc3c(c2)OCO3)on1,inactive: 6.08%,
Cc1ccc(OC(C)C(=O)Nc2nonc2-c2ccc(Br)cc2)cc1C (stereo not given),inactive: 0.122%,
Cc1ccc(Nc2c(-c3c[nH]c4ccccc34)nc3cc(C)ccn23)cc1,inactive: 1.74%,
COc1cc(OC)c(OC)cc1/C=C/c1nc2cc3ccccc3cc2c(=O)n1-c1ccc(Cl)cc1,inactive: 7.78%,

SMILES,"activity change, negative = inhibition",Potency
CCOc1ccccc1NC(=O)CSc1nc2c(oc3ccccc32)c(=O)n1-c1ccc(C)c(C)c1,inactive: -7.65%,
CC(C)OCCCNC(=O)c1ccc2c(c1)N(Cc1c(F)cccc1Cl)C(=O)c1ccccc1S2,inactive: 1.13%,
COc1ccc(-c2nn3c(=O)cc(CN4CCN(C(=O)c5ccc(C(C)(C)C)cc5)CC4)nc3s2)cc1,inactive: 10.6%,
CCOC(=O)CC(NS(=O)(=O)c1ccc2[nH]c3c(c2c1)CCCC3)c1ccccc1Cl (stereo not given),inactive: -9.25%,
COc1ccc(C(=O)NCC(c2cccnc2)N2CCc3ccccc32)cc1 (stereo not given),inactive: 6.87%,
CCOC(=O)c1c(N)n(-c2ccc(C)c(Cl)c2)c2nc3ccccc3nc12,inactive: 1.63%,
Cc1ccc(Oc2c(C(F)(F)F)oc3c(CN4CCCCC4C)c(O)ccc3c2=O)cc1 (stereo not given),inactive: -6.98%,
O=C(CCC1N=C2c3ccccc3N=C(SCc3ccc(F)cc3)N2C1=O)NCc1cccs1 (stereo not given),inactive: -4.4%,
CC1=C(c2ccc(C)c(C)c2)S(=O)(=O)N(Cc2ccc(C(=O)NCc3cccc(C)c3)cc2)C1=O,inactive: -0.47%,
Cc1cccc(NC(=O)c2oc3ccccc3c2NC(=O)Cc2coc3c(C)c(C)ccc23)c1,inactive: 1.58%,
CCC(C(=O)Nc1cc(Cl)ccc1OC)n1nc(-c2ccccc2)ccc1=O (stereo not given),inactive: -0.401%,
CCOC(=O)C1=C(CS(=O)(=O)c2cccc(C(F)(F)F)c2)NC(=O)NC1c1cccc(OC)c1 (stereo not given),inactive: -18.1%,
COc1ccccc1CNC(=O)C1CCCN(c2nc3ccccc3n3cccc23)C1 (stereo not given),inactive: 9%,
COc1ccc(Cl)cc1C(=O)Nc1sc2c(c1C(=O)OC(C)C)CCCC2,inactive: 2.58%,
O=C(C1CC1)N1CCc2cc(Br)cc(S(=O)(=O)N3CCN(c4cccc(C(F)(F)F)c4)CC3)c21,inactive: 9.29%,
CCCCOc1ccc(-c2nn(-c3ccccc3)cc2C2NC(=O)NC(C)=C2C(=O)OC)cc1 (stereo not given),inactive: -0.29%,
CC(=O)N1CCc2cc(Br)cc(S(=O)(=O)N3CCN(c4cccc(C(F)(F)F)c4)CC3)c21,inactive: 2.07%,
CCCCN(C)c1nc2c(S(=O)(=O)c3ccc(CC)cc3)nnn2c2ccc(Cl)cc12,inactive: 2.78%,
COc1ccccc1NC(=O)C1=C(C)Nc2c(C(=O)Nc3ccc(F)cc3)cnn2C1c1cccc([N+](=O)[O-])c1 (stereo not given),inactive: 0.0441%,
COc1cc(C(CC(=O)NCc2ccc(F)cc2)N2Cc3ccccc3C2=O)cc(OC)c1OC (stereo not given),inactive: -1.67%,
